The other results are listed elsewhere or left out. Interaction screen of human proteins with wild-type SARS-CoV-2 proteins by split-DHFR complementation in yeast, 1 µg/mL methotrexate. Value = fitness of the pair (three or more lineages) minus that of the viral protein without a human partner, on a scale set by negative (0) and fused positive (1) controls, mean of up to three cultures; higher = more likely to interact. Active = false discovery rate below 0.05 (one-sided t-test) in at least one culture. Nearly all pairs are not hits, and differences among them are mostly noise (correlation between cultures about 0.3); most hits were seen in one culture only. Human sequences are the Swiss-Prot entries looked up by gene name; the clone may be another isoform. NSP2 values were corrected by the authors for a growth advantage. Listed are human proteins with a hit and a random twelfth of the others.

B1: PCDHA4, Q9UN74 (protein)
chain: MEFSWGSGQESRRLLLLLLLLAAWEAGNGQLHYSVSEEAKHGTFVGRIAQDLGLELAELVPRLFRVASKGRGGLLEVNLQNGILFVNSRIDREELCRRSAECSIHLEVIVDRPLQVFHVDVEVRDINDNPPVFPATQKNLSIAESRPLDSRFPLEGASDADIGENALLTYRLSPNEYFSLEKPPDDELVKGLGLILRKSLDREEAPEIFLVLTATDGGKPELTGTVQLLITVLDANDNAPAFDRTIYKVRLLENVPNGTLVIKLNASDLDEGLNGDIVYSFSNDISPNVKSKFHIDPITGQIIVKGYIDFEESKSYEIIVEGIDKGQLPLSGHCRVIVEVEDNNDNVPDLEFKSLSLPIREDAPLGTVIALISVSDKDMGVNGLVTCSLTSHVPFKLVSTFKNYYSLVLDSALDRESVSAYELVVTARDGGSPSLWATASVSVEVADVNDNAPAFAQPEYTVFVKENNPPGCHIFTVSAWDADAQENALVSYSLVERRVGERALSSYVSVHAESGKVYALQPLDHEELELLQFQVTARDAGVPPLGSNVTLQVFVLDENDNAPALLAPRAGGTGGAVSELVPWSVGVGHVVAKVRAVDADSGYNAWLSYELQPGTGGARIPFRVGLYTGEISTTRALDETDAPRHRLLVLVKDHGEPALTATATVLVSLVESGQAPKASSRALVGAVGPDAALVDVNVYLIIAICAVSSLLVLTLLLYTALRCSALPTEGACAPGKPTLVCSSAVGSWSYSQQRRPRVCSGEGPPKTDLMAFSPSLPDSRDREDQLQTTEESFAKPRQPNPDWRYSASLRAGMHSSVHLEEAGILRAGPGGPDQQWPTVSSATPEPEAGEVSPPVGAGVNSNSWTFKYGPGNPKQSGPGELPDKFIIPGSPAIISIRQEPTNSQIDKSDFITFGKKEETKKKKKKKKGNKTQEKKEKGNSTTDNSDQ
B2: ZCCHC14, Q8WYQ9 (protein)
chain: MASNHPAFSFHQKQVLRQELTQIQSSLNGGGGHGGKGAPGPGGALPTCPACHKITPRTEAPVSSVSNSLENALHTSAHSTEESLPKRPLGKHSKVSVEKIDLKGLSHTKNDRNVECSFEVLWSDSSITSVTKSSSEVTEFISKLCQLYPEENLEKLIPCLAGPDAFYVERNHVDLDSGLRYLASLPSHVLKNDHVRRFLSTSSPPQQLQSPSPGNPSLSKVGTVMGVSGRPVCGVAGIPSSQSGAQHHGQHPAGSAAPLPHCSHAGSAGSALAYRTQMDTSPAILMPSSLQTPQTQEQNGILDWLRKLRLHKYYPVFKQLSMEKFLSLTEEDLNKFESLTMGAKKKLKTQLELEKEKSERRCLNPSAPPLVTSSGVARVPPTSHVGPVQSGRGSHAAELRVEVEQPHHQLPREGSSSEYSSSSSSPMGVQAREESSDSAEENDRRVEIHLESSDKEKPVMLLNHFTSSSARPTAQVLPVQNEASSNPSGHHPLPPQMLSAASHITPIRMLNSVHKPERGSADMKLLSSSVHSLLSLEERNKGSGPRSSMKVDKSFGSAMMDVLPASAPHQPVQVLSGLSESSSMSPTVSFGPRTKVVHASTLDRVLKTAQQPALVVETSTAATGTPSTVLHAARPPIKLLLSSSVPADSAISGQTSCPNNVQISVPPAIINPRTALYTANTKVAFSAMSSMPVGPLQGGFCANSNTASPSSHPSTSFANMATLPSCPAPSSSPALSSVPESSFYSSSGGGGSTGNIPASNPNHHHHHHHQQPPAPPQPAPPPPGCIVCTSCGCSGSCGSSGLTVSYANYFQHPFSGPSVFTFPFLPFSPMCSSGYVSAQQYGGGSTFPVVHAPYSSSGTPDPVLSGQSTFAVPPMQNFMAGTAGVYQTQGLVGSSNGSSHKKSGNLSCYNCGATGHRAQDCKQPSMDFNRPGTFRLKYAPPAESLDSTD
B3: RGR, P47804 (protein)
chain: MAETSALPTGFGELEVLAVGMVLLVEALSGLSLNTLTIFSFCKTPELRTPCHLLVLSLALADSGISLNALVAATSSLLRRWPYGSDGCQAHGFQGFVTALASICSSAAIAWGRYHHYCTRSQLAWNSAVSLVLFVWLSSAFWAALPLLGWGHYDYEPLGTCCTLDYSKGDRNFTSFLFTMSFFNFAMPLFITITSYSLMEQKLGKSGHLQVNTTLPARTLLLGWGPYAILYLYAVIADVTSISPKLQMVPALIAKMVPTINAINYALGNEMVCRGIWQCLSPQKREKDRTK
B4: C9orf123, Q96GE9 (protein)
chain: MGSRLSQPFESYITAPPGTAAAPAKPAPPATPGAPTSPAEHRLLKTCWSCRVLSGLGLMGAGGYVYWVARKPMKMGYPPSPWTITQMVIGLSENQGIATWGIVVMADPKGKAYRVV

One assay has as its target SARS-CoV-2 NSP1. In words: yeast fitness gain over the viral ORF with no human partner (scaled fitness); higher = more likely to interact. The method, then:
(§1)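 Split mouse DHFR complementation in pooled diploid yeast: human ORFeome clones carry one fragment and viral ORFs the other; barcoded lineages compete in 1 µg/mL methotrexate and fitness is read by barcode sequencing in up to three cultures.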
With B1, the yeast fitness gain was inactive: -0.0967.
Still for that read-out and setting: to B2 belongs inactive: 0.114; to B3, inactive: -0.0177.
The same measure, in the same setting: as for B4, the figure is inactive: -0.0847.

Another assay has as its target SARS-CoV-2 NSP10. The description is as above. How it is done: as §1
B1: the yeast fitness gain is inactive: 0.0245.
B3: the yeast fitness gain was inactive: -0.0185.
Still for that read-out and setting: as for B4, the figure is inactive: -0.187.

In the next assay the target is SARS-CoV-2 NSP12. Described as above. How it is done: as §1
Turning to B1, the yeast fitness gain is inactive: 0.0853.
The same measure, in the same setting: to B3 belongs inactive: -0.0446.
On the same count and under the same terms, to B4 belongs inactive: -0.0854.

The target of the next assay is SARS-CoV-2 NSP13. The assay is described as above. The method, then:
as §1
In the case of B1, the yeast fitness gain is inactive: -0.00713.
On the same count and under the same terms, as for B3, the figure is inactive: -0.0896; as for B4, inactive: 0.0228.

The target of another assay is SARS-CoV-2 NSP2. The description is as above. How it is done:
as §1
As for B1, the yeast fitness gain is inactive: -0.157.
Still for that read-out and setting: to B3 belongs inactive: -0.171; to B4, inactive: -0.15.

In the next assay the target is SARS-CoV-2 NSP5. The description is as above. The method, then: as §1
For B1, the yeast fitness gain was inactive: 0.0282.
The same measure, in the same setting: to B3 belongs inactive: -0.0833; to B4, inactive: -0.00911.

Another assay deals with SARS-CoV-2 NSP7. The assay is described as above. How it is done: as §1
B1: the yeast fitness gain is inactive: 0.0949.
With B2, the yeast fitness gain is inactive: -0.0806.
Same read-out and setting: as for B3, the figure is inactive: 0.0348.
Still for that read-out and setting: to B4 belongs inactive: -0.261.

A further assay deals with SARS-CoV-2 NSP9. The assay is described as above. The method, then: as §1
In the case of B1, the yeast fitness gain was inactive: 0.0142.
Same read-out and setting: as for B3, the figure is inactive: 0.0261.

The next assay deals with SARS-CoV-2 ORF10. The assay is described as above. How it is done:
as §1
With B1, the yeast fitness gain was inactive: -0.0146.
Same read-out and setting: as for B3, the figure is inactive: 0.0309.
Same read-out and setting: to B4 belongs inactive: -0.0592.

The target of another assay is SARS-CoV-2 ORF3B. Described as above. How it is done: as §1
For the molecule B1, the yeast fitness gain is inactive: 0.0111.
Still for that read-out and setting: as for B3, the figure is inactive: -0.0257.
Still for that read-out and setting: to B4 belongs inactive: -0.182.

The next assay has as its target SARS-CoV-2 ORF6. Described as above. How it is done: as §1
On to B1, for which the yeast fitness gain is inactive: 0.0129.
Same read-out and setting: as for B3, the figure is inactive: -0.0629.
Turning to B4, the yeast fitness gain is inactive: 0.0457.

In the next assay the target is SARS-CoV-2 ORF7B. The description is as above. How it is done:
as §1
On to B1, for which the yeast fitness gain is inactive: 0.0859.
Still for that read-out and setting: as for B3, the figure is inactive: -0.06.
Same read-out and setting: to B4 belongs inactive: -0.0409.

A further assay deals with SARS-CoV-2 ORF8. The description is as above. The method, then:
as §1
In the case of B1, the yeast fitness gain was inactive: 0.0172.
As to B3, the yeast fitness gain is inactive: 0.11.
As for B4, the yeast fitness gain was inactive: -0.13.

The target in a further assay is SARS-CoV-2 ORF9B. The description is as above. The method, then:
as §1
In the case of B1, the yeast fitness gain is inactive: -0.0759.
For B3, the yeast fitness gain was inactive: -0.0546.
On the same count and under the same terms, as for B4, the figure is inactive: 0.0211.

A further assay concerns the target SARS-CoV-2 N. Described as above. The method, then: as §1
In the case of B2, the yeast fitness gain was inactive: -0.0468.

The target in the next assay is SARS-CoV-2 NSP16. The description is as above. The method, then:
as §1
As to B2, the yeast fitness gain was inactive: 0.0311.

The next assay addresses SARS-CoV-2 NSP8. The assay is described as above. How it is done: as §1
As to B2, the yeast fitness gain is inactive: -0.0477.

A further assay addresses SARS-CoV-2 ORF9Bwu (the 73-codon ORF). The assay is described as above. The method, then:
as §1
With B2, the yeast fitness gain is inactive: 0.0753.
Same read-out and setting: to B3 belongs inactive: -0.014; to B4, inactive: -0.0327.

Another assay deals with SARS-CoV-2 S. Described as above. The method, then: as §1
As to B3, the yeast fitness gain is inactive: -0.0637.
Still for that read-out and setting: to B4 belongs inactive: -0.125.
